# Test results: PubChem BioAssay AID1347073 (National Center for Advancing Translational Sciences (NCATS), 2019)
# About 200 (0.44%) of roughly 45,000 compounds were called active. Not shown: some 7% with an inconclusive outcome. Calls follow the shape of the dose curve; as a rule, active = well fitted activation curve with a large enough effect; inconclusive = small, poorly fitted or top-dose-only effect; inactive = no such curve, though single readings can be large or run the other way. The list shows a part of the results.
# Assay: qHTS of TDP-43 Inhibitors: NCGC Sytravon Library Screen; also: 0% is about no effect; nearly all actives have a fitted effect of over 55% in size
# Conditions: yeast TDP-43 toxicity rescue, BacTiter-Glo growth, 24 h; series mostly up to 46.1 µM; growth rescue (activation): at the top concentration
# Summary of the method: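 TDP-43-expressing yeast, pregrown in raffinose, seeded at OD600 0.02 in galactose medium with compound for 24 hr at 30 deg C. Growth read by BacTiter-Glo luminescence, so rescue of toxicity appears as activation.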
row,Compound,growth rescue (activation)
1,Cc1cccc(NC(=O)COC(=O)c2cccs2)c1C,inactive: 5.3%
2,C/C(=N/Nc1ncc(C(F)(F)F)cc1Cl)c1ccncc1,inactive: 7.45%
3,CC1CN(c2nnc(NC(=O)c3ccccc3)s2)CC(C)O1 (stereo not drawn),inactive: 23.8%
4,c1coc(-c2ccnc3ncnn23)c1,inactive: 9.23%
5,O=C(NC(=S)N1CCN(c2ccc([N+](=O)[O-])cc2)CC1)c1ccccc1Cl,inactive: 5.35%
6,CCc1cccc2c(C(=S)N3CCOCC3)c[nH]c12,inactive: 5.19%
7,CC(C)c1onc(C(=O)N(C)C2CCCCC2)c1[N+](=O)[O-],inactive: 9.35%
8,OCc1cnc(SCc2ccccc2)n1Cc1ccccc1,inactive: -1.81%
9,CCOC(=O)c1cccc(NC(=O)C2=C(C)C(=O)OC23CCCCC3)c1,inactive: 9.83%
10,O=C1/C(=C\c2ccc(O)c(O)c2)SC(=S)N1Cc1ccccc1,inactive: -94.6%
11,COC(=O)c1nc2ccccn2c1F,inactive: 5.89%
12,CN(C)c1ccc(Cl)cc1N,inactive: 0.676%
13,O=C(Cc1ccccc1)N[C@@H](Cc1ccccc1)c1nc2ccccc2[nH]1,inactive: -19%
14,CC1CCCC(NC(=O)COC(=O)Cc2cn3ccsc3n2)C1C (stereo not drawn),inactive: 26.7%
15,Cc1ccc(-c2csc(NS(=O)(=O)c3cccc(F)c3)n2)o1,inactive: 11.9%
16,O=C(NCc1ccccc1)C(c1cccnc1)N(C(=O)c1ccccn1)c1ccc(F)cc1 (stereo not drawn),inactive: 2.68%
17,CCC1C(=O)C(C)(C)C(=O)OC1c1ccc([N+](=O)[O-])cc1 (stereo not drawn),inactive: 14%

row,Compound,growth rescue (activation)
1,CN(C)c1ccc(C(=S)N2CCCCC2)cc1,inactive: 21.6%
2,Cc1ccc(C(=O)Nc2nnc(COc3ccccc3)s2)cc1,inactive: -7.47%
3,CCOP(=O)(OCC)C(NC(=O)c1cccs1)C(F)(F)F (stereo not drawn),inactive: 1.28%
4,CC(=O)c1cn(CC(=O)Nc2ccccc2F)c2ccccc12,inactive: 4.81%
5,Cc1ccc(CNC(=O)CCS(=O)(=O)c2ccc(Br)cc2)cc1,inactive: 6.02%
6,Cn1ccc(C(=O)OCC(=O)Nc2ccccc2Cl)n1,inactive: -26.1%
7,CCc1ccc(N(CC(=O)NCc2ccc3c(c2)OCO3)C(=O)c2csnn2)cc1,inactive: -4.61%
8,CCCCOC(C)n1cc(F)c(=O)[nH]c1=O (stereo not drawn),inactive: -13.4%
9,O=C(O)c1nn(CCOc2ccccc2F)c(=O)c2ccccc12,inactive: -9.09%
10,COc1ccc(C(=O)C2CCN(CC(=O)Nc3ccccc3F)CC2)cc1,inactive: -0.792%
11,O=C(CNC(=O)c1ccccc1)NCc1ccc(Cl)cc1,inactive: 10.6%
12,CCCCn1c(N)c(N(CC)C(=O)c2ccc(C#N)cc2)c(=O)[nH]c1=O,inactive: 1.39%
13,O=C(COc1ccccc1)N/N=C/c1sc(=O)n(Cc2cccc(C(=O)O)c2)c1Cl,inactive: -46.8%
14,O=C(NCc1ccc(Cl)nc1)c1csc(COCCO)n1,inactive: 5.39%
15,CCOc1ccc(N2C(=O)CC(N(CCc3ccc(OC)cc3)C(=O)/C=C/C(=O)O)C2=O)cc1 (stereo not drawn),inactive: 3.1%
16,CCc1ccc(NC(=O)C(=O)NNC(=O)c2cccs2)cc1,inactive: -23.6%
